# Measured values: PubChem BioAssay AID588579 (National Center for Advancing Translational Sciences (NCATS), 2011)
# Among all 400,000 compounds or so, about 2,200 (0.55%) were called active. Inconclusive results, whose numbers are uncertain, are shown with a selection of clear calls. Calls come from the whole dose curve; as a rule, active = well fitted inhibition curve with a large enough effect; inconclusive = small, poorly fitted or top-dose-only effect, or another doubt; inactive = no such curve, though single readings can be large or run the other way. A potency beside an inconclusive call is a rough fit, not a confirmed value. Starred links: 1 amine or outer side, 2 acyl side, 3 side chain; linkers in the order of their positions; H or OH if unused. Positions of bridges follow the written chain, without caps; N, C: chain ends. Non-standard residues stand in square brackets, D forms with d. Residues, ends and D or L forms follow the SMILES beside them. ξ: configuration not given here. hSer(Ph(2-I,4-NO2,6-CO)) = O=C([C@H](CCOc1c(I)cc([N+](=O)[O-])cc1C(=O)[*:3])N[*:1])[*:2]; ξD = NC(CC(=O)O)C(=O)O
# Target: DNA polymerase kappa (Homo sapiens) (UniProt Q9UBT6)
# Chain of UniProt Q9UBT6 (Q9UBT6 whole entry, looked up): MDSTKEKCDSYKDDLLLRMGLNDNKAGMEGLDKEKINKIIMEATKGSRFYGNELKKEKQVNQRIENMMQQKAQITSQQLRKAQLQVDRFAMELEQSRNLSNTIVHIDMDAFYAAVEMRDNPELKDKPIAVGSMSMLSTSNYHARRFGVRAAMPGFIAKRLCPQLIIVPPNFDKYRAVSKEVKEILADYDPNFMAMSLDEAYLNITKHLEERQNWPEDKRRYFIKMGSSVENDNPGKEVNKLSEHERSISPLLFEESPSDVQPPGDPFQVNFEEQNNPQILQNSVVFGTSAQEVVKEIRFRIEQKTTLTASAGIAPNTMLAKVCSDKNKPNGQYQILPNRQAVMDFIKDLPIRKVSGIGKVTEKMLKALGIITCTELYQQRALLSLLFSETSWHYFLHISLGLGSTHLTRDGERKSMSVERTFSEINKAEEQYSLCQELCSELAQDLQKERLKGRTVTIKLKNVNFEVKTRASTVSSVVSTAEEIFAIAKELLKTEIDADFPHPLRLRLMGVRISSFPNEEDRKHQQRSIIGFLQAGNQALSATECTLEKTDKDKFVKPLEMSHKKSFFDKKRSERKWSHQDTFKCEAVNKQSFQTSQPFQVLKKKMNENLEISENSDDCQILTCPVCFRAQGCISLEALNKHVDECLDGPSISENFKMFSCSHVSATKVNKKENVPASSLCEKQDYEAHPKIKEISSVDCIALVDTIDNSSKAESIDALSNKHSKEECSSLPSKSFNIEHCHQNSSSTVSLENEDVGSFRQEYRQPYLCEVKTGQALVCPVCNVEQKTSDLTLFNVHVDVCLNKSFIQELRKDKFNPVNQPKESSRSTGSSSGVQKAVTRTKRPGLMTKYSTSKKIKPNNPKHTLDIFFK
# Assay: qHTS for Inhibitors of Polymerase Kappa
# Settings: purified Pol kappa, fluorescent DNA synthesis assay, 10 min; series mostly up to 107 µM
# In short: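 10 nM Pol kappa preincubated 15 min at room temperature with compounds, then reaction started with substrate at 50 nM final. Fluorescence read kinetically at 0 and 10 min; buffer-only wells served as negative control.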
# % is set by controls: 0 for no effect and ±100 for the full control effect; potency is the fitted concentration of half-maximal effect; tags give direction and shape of the fitted curve.
SMILES,Potency,"activity, negative = inhibition"
Cc1cccc(OCCn2c(-c3ccc(Cl)cc3)nc3ccccc3c2=O)c1C,inactive,–
O=C(NC1CC(=O)N(c2ccccc2)C1)c1ccc(S(=O)(=O)N2CCCC2)cc1 (configuration not stated),inactive,–
O=C(CSc1nnc(-c2ccccc2)c(-c2ccccc2)n1)NCc1ccco1,inactive,–
O=C(NC(Cc1ccccc1)C(=O)O)/C(=C/c1ccco1)NC(=O)c1cccc(Br)c1 (configuration not stated),"inconclusive: 39.8 µM [inhibitor, partial curve, poor fit]",–
O=C1NN(c2ccccc2)C(=O)/C1=C\c1ccc(-c2cc([N+](=O)[O-])ccc2O)o1,active: 39.8 µM,–
CSc1ccc(C2C(C#N)=C(N)Oc3c2ccc(=O)c2c(C)oc(C)c32)cc1 (configuration not stated),active: 50.1 µM,–
Cc1ccc(C(=O)N/N=C\c2cc(Br)c(Br)o2)cn1,"inconclusive: 100 µM [inhibitor, single point]",–
NS(=O)(=O)c1cccc(NC(=O)c2ccc3nc[nH]c3c2)c1,"inconclusive: 70.8 µM [inhibitor, single point]",–
Cc1ccccc1C(=O)O/N=C(\N)c1cccc([N+](=O)[O-])c1,inactive,–
CCOc1ccc(OCC)c(NC(=O)c2cc(-c3cccs3)nc3ccccc23)c1,"inconclusive: 89.1 µM [inhibitor, single point]",–
COc1cc(/C=C/C(=O)OCC(=O)N2CCN(S(=O)(=O)c3ccc(C)cc3C)CC2)ccc1O,"inconclusive: 100 µM [inhibitor, partial curve, poor fit]",–
CCCCC(=O)OCC(=O)[C@]1(O)Cc2c(O)c3c(c(O)c2[C@H](OC2CC(NC(=O)C(F)(F)F)C(O)C(C)O2)C1)C(=O)c1c(OC)cccc1C3=O (some centres not stated),"inconclusive: 18.9 µM [inhibitor, partial curve, poor fit]",–
O=C(CSc1nc2ccccc2n1Cc1cccc(F)c1)N1CCN(c2ccc(F)cc2)CC1,inactive,–
COc1ccc(NC(=O)CN(C)CC(=O)NC2CCCCC2C)cc1 (configuration not stated),"inconclusive: 89.1 µM [inhibitor, single point]",–
O=C(CCc1nnc2ccc(NCc3ccco3)nn12)Nc1ccc(F)cc1,"inconclusive: 100 µM [inhibitor, single point]",–
NS(=O)(=O)c1ccc(NC(=O)CSc2cn[nH]n2)cc1,inactive,–
COc1ccc(C2C=C3CNS(=O)(=O)C3CC2OC(=O)c2ccc(C(F)(F)F)cc2)cc1 (configuration not stated),inactive,–
COc1cc(/C=C2\S/C(=N/S(=O)(=O)c3ccc(C)cc3)NC2=O)c([N+](=O)[O-])cc1OC,inactive,–
C=CCOc1ccc(C(c2c(C(=O)O)[nH]c3ccccc23)c2c(C(=O)O)[nH]c3ccccc23)cc1,active: 79.4 µM,–
NC(=O)c1ccsc1NC(=O)COC(=O)c1ccccn1,"inconclusive: 89.1 µM [inhibitor, partial curve, poor fit]",–
COc1ccc2c(c1)C(c1ccccc1OC)CC(=O)O2 (configuration not stated),active: 39.8 µM,–
CC(C(=O)Nc1ccccc1)n1nnc2sc3c(c2c1=O)CCCC3 (configuration not stated),inactive,–
CCc1nnc(NS(=O)(=O)c2ccc(NC(=O)/C=C/c3ccc(OC)cc3OC)cc2)s1,"inconclusive: 100 µM [inhibitor, single point]",–

SMILES,Potency,"activity, negative = inhibition"
Cc1noc(C)c1-c1ccc2ncnc(NCc3cccnc3)c2c1,inactive,–
COc1cc(/C=C2\SC(=O)N(c3cccc(Cl)c3)C2=O)cc([N+](=O)[O-])c1O,"inconclusive: 22.4 µM [inhibitor, full curve, poor fit]",–
Cc1cc(/C=C/c2ccnc3ccccc23)ccc1N,"inconclusive: 100 µM [inhibitor, single point]",–
O=C(CSc1ccc(-c2nc3ccccc3[nH]2)cn1)N1CCN(C(=O)c2ccco2)CC1,active: 50.1 µM,–
COc1ccc(/C=C2\C(=O)NC(=S)N2C(=O)c2ccc(C)cc2)cc1,"inconclusive: 89.1 µM [inhibitor, single point]",–
CCOC(=O)NC1(NCC(C)C)Oc2ccccc2O1,"inconclusive: 89.1 µM [inhibitor, single point]",–
Cc1ccc(NC(=O)c2c(C)nn(-c3ccccc3)c2-n2cccc2)c(Cl)c1,inactive,–
CC(=O)c1c(C)n(-c2ccc(C)cc2)c2ccc(OC(=O)COc3ccccc3)cc12,"inconclusive: 100 µM [inhibitor, partial curve, poor fit]",–
CCc1ccc(C2C(C#N)=C(N)SC(N)=C2C#N)s1,"inconclusive: 89.1 µM [inhibitor, partial curve, poor fit]",–
CC(CNC(=O)c1cccnc1)NC(=O)c1cccnc1 (configuration not stated),–,inactive: -1.8% [at 19.4 µM]
COC(=O)c1ccccc1NC(=O)Oc1ccc(C(C)C)cc1,inactive,–
C/C(=N\Nc1nc(-c2cc(C)ccc2C)cs1)c1cc2c(ccc3ccccc32)oc1=O,active: 79.4 µM,–
"NC(=O)C(CC(=O)O)NC(=O)[C@@H]1CCOc2c(I)cc([N+](=O)[O-])cc2C(=O)N[C@@H](CO)C(=O)N[C@@H](Cc2ccc(O)cc2)C(=O)N1 (some centres not stated) (SY[hSer(Ph(2-I,4-NO2,6-CO))][ξD]-NH2; lactam N-3)",active: 35.5 µM,–
C=CCN1C(=O)/C(=C/C=C2/N(CC)c3ccc(S(=O)(=O)N(C)C)cc3N2CC)SC1=S,inactive,–
COc1cc(NC(=O)c2noc3c2CCC3)c(OC)cc1Cl,active: 31.6 µM,–
CC(=O)Nc1ccc(NC(=O)c2cccc(-c3cc4ccccc4oc3=O)c2)cc1,inactive,–
CCOC(=O)CC(NS(=O)(=O)c1ccc2[nH]cc(C(=O)O)c(=O)c2c1)c1ccc(OCC)c(OC)c1 (configuration not stated),active: 50.1 µM,–
O=C(COC(=O)c1ccc(OC(F)(F)F)cc1)Nc1ncccn1,"inconclusive: 89.1 µM [inhibitor, single point]",–
COc1ccc(CNc2nc3c(-c4ccc(C)cc4)nnn3c3ccccc23)cc1,inactive,–
O=C(CN(C(=O)c1csnn1)c1ccccc1)NCc1ccc2c(c1)OCO2,"inconclusive: 89.1 µM [inhibitor, single point]",–
COc1ccc(C(=O)C[n+]2cccc3cc(Cl)ccc32)cc1,"inconclusive: 89.1 µM [inhibitor, single point]",–
C[C@@]12C=Cc3occc3C1CC[C@@]13C[C@@H](CCC12)[C@@](O)(CO)C3 (some centres not stated),"inconclusive: 20 µM [inhibitor, partial curve, poor fit]",–
Cc1cccc(NC2(C(F)(F)F)N=C(c3ccccc3)NC2=O)n1 (configuration not stated),"inconclusive: 89.1 µM [inhibitor, single point]",–

SMILES,Potency,"activity, negative = inhibition"
CCN(c1ccc(Cl)cc1)S(=O)(=O)c1nnc(NC(=O)c2ccco2)s1,inactive,–
O=C(CC(NS(=O)(=O)c1ccc(Cl)cc1)c1ccco1)NCc1ccco1 (configuration not stated),"inconclusive: 89.1 µM [inhibitor, partial curve, poor fit]",–
Cc1ccc(C)c(NC(=O)CCS(=O)(=O)c2cccc3nsnc23)c1,inactive,–
O=C(Nc1nnc(C2CC2)s1)C1CC(=O)N(c2ccc3c(c2)OCCO3)C1 (configuration not stated),"inconclusive: 100 µM [inhibitor, single point]",–
Cn1nnnc1SCC1=C(C(=O)O)N2C(=O)C(NC(=O)Cn3nc(C(F)F)cc3C3CC3)C2SC1 (configuration not stated),"inconclusive: 79.4 µM [inhibitor, partial curve, poor fit]",–
Cc1ccccc1CNC(=O)C1CCC(=O)N(C2CCCCCC2)C1 (configuration not stated),inactive,–
COc1ccc(N2Cc3cccc(C(=O)Nc4ccc(C)cc4)c3C2=O)cc1,"inconclusive: 89.1 µM [inhibitor, single point]",–
C=CC[n+]1c(/C=C2\C=Cc3cc(C)ccc3N2CC)ccc2ccccc21,"inconclusive: 50.1 µM [inhibitor, partial curve, poor fit]",–
CC1(C)CC(=O)C2=C(C1)c1c(ccc3ccccc13)NC2c1ccco1 (configuration not stated),"inconclusive: 89.1 µM [inhibitor, single point]",–
CCOc1ccccc1CNC(=O)C1CCN(C(=O)N2CCOc3ccc(Cl)cc32)CC1,"inconclusive: 89.1 µM [inhibitor, single point]",–
CCOc1cc(C(=O)N2CCC(CC3CC(c4ccc(Cl)cc4)=NO3)(C(=O)NCC3CCCCC3)CC2)cc(OCC)c1OCC (configuration not stated),inactive,–
CN(C)C1C(=O)C(C(N)=O)C(=O)C2(O)C(=O)C3C(=O)c4c(O)ccc(Cl)c4C(O)C3CC12 (configuration not stated),active: 35.5 µM,–
COc1cccc(NC(=O)CN(C)C(=O)c2cc(-c3ccco3)nc3ccccc23)c1,"inconclusive: 89.1 µM [inhibitor, single point]",–
O=c1[nH]c2cc3c(cc2cc1CN(Cc1cccnc1)Cc1nnnn1Cc1ccco1)OCCO3,active: 89.1 µM,–
Cc1ccc(C(=O)NNC(=S)NC(=O)c2ccco2)cc1,"inconclusive: 89.1 µM [inhibitor, single point]",–
O=c1c(C(c2ccc(Br)cc2)c2c(O)nc3n(c2=O)CCCS3)c(O)nc2n1CCCS2,"inconclusive: 28.2 µM [inhibitor, single point]",–
CC(C)Oc1ccc(CNC(=O)c2ccc(CS(=O)Cc3ccccc3Cl)o2)cc1 (configuration not stated),"inconclusive: 89.1 µM [inhibitor, single point]",–
CCCN1C(=O)c2ccccc2NC1c1ccc(OC)c(COc2cccc(C)c2C)c1 (configuration not stated),inactive,–
O=C(COC(=O)/C=C/c1ccco1)Nc1cc(S(=O)(=O)N2CCOCC2)ccc1Cl,"inconclusive: 56.2 µM [inhibitor, partial curve, poor fit]",–
NC(=O)c1cccc2c1C(=O)N(C1CCCCC1)C2,"inconclusive: 79.4 µM [inhibitor, partial curve, poor fit]",–
CCN(CC)c1ccc(C=C2SC(=S)NC2=O)cc1,"inconclusive: 50.1 µM [inhibitor, partial curve]",–
